Test results from PubChem BioAssay AID360 (National Center for Advancing Translational Sciences (NCATS), 2006).
Hit rate of the full screen: of about 48,000 compounds, about 550 (1.1%) were called active. Roughly 4% stayed inconclusive and do not appear here. Rule as the data show it: active = potency below about 15 µM; inconclusive = mostly about 16 µM to 33 µM; inactive = weaker than that. Some of the results follow.

Biological target: Lysosomal acid glucosylceramidase (Homo sapiens) (UniProt P04062)
Test: Glucocerebrosidase;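 also: the screen sought inhibitors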
Conditions: purified enzyme, resorufin glucoside fluorescence (screen aimed at inhibitors), 20 min; series mostly up to 77 µM
Method in brief: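 Wild-type enzyme at 0.2 nM final in 50mM citric acid/KH2PO4, 10mM sodium taurocholate, 0.01% tween-20, pH 5.9, with resorufin beta-D-glucopyranoside at 30 uM final. Compounds titrated, 20 min at RT, red fluorescence read; AC50 from titration.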
Potency is read from the fitted curve at half-maximal effect.

Chain of UniProt P04062 (P04062 whole entry, looked up): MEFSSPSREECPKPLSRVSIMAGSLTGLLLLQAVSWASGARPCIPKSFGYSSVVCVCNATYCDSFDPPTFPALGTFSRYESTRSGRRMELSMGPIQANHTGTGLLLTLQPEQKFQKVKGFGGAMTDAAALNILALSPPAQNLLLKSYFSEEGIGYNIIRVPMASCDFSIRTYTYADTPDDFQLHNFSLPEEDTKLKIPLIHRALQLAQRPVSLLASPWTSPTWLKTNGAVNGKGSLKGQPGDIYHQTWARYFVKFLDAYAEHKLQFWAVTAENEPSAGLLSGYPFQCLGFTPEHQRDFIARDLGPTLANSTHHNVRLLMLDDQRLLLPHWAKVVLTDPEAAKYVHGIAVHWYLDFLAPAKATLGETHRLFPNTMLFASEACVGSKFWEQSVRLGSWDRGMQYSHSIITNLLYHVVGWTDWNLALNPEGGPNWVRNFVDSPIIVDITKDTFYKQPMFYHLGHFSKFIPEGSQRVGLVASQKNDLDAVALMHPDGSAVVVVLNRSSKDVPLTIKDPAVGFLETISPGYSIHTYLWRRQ

Potency, inactive:
COCCn1c(Sc2ccccc2)nc2c1c(=O)[nH]c(=O)n2C > 76.9 µM
Cn1c(=O)n(CCCOc2ccc(Br)cc2)c2ccccc21 > 76.9 µM
COc1ccccc1OCc1ccc(C(=O)n2nc(C)c(Cl)c2C)o1 > 76.9 µM
CCCCC(=O)Nc1nn(CCC)c2nc3ccccc3cc12 > 76.9 µM
Fc1ccc2nc3[nH]c4ccccc4c3nc2c1 > 76.9 µM
CC(C)(C)NC(=O)NC(=O)Cn1cc(C(F)(F)F)ccc1=O > 76.9 µM
C/C(NCc1cccnc1)=C(\C#N)C(=O)NCc1ccccc1 > 76.9 µM
O=S(=O)(c1cccc(-c2cn3cccnc3n2)c1)N1CCCCCC1
Cc1onc(-c2ccccc2Cl)c1C(=O)OCC(=O)Nc1ccc2c(c1)OCO2 > 76.9 µM
CC(C)Cn1c(SCC(=O)NC2CCCc3ccccc32)nc(O)cc1=O (configuration not stated) > 76.9 µM
CCn1cc(C(=O)N2CCc3ccccc32)c(=O)c2cc(S(=O)(=O)N3CCOCC3)ccc21 > 76.9 µM
O=C(CSc1nnc([C@@H]2CCCN2)o1)c1ccc(Cl)cc1 > 76.9 µM
Cc1cc(NC(=O)CSc2nc(-c3ccc(F)cc3)cs2)no1 > 76.9 µM
Cc1cc(C)n2nc(C(=O)Nc3ccc4c(c3)OCO4)nc2n1 > 76.9 µM
COc1cc(CC(=O)OC2CCOC2=O)cc(OC)c1OC (configuration not stated) > 76.9 µM
COCCNC(=O)C1CC(=O)N(CCc2ccccc2)C1 (configuration not stated) > 76.9 µM
Cc1ccc(C)c(CN2CCCNC2=O)c1 > 76.9 µM
COc1cc(C(=O)N2CCCC(c3nc(-c4cccs4)no3)C2)cc(OC)c1OC (configuration not stated) > 76.9 µM
C/C=C/C=[N+](\[O-])C(C)/C(=N/O)c1ccc(F)cc1 (configuration not stated) > 76.9 µM
COc1ccc(OC)c(NC(=O)CSc2nnc(CCCO)n2-c2ccccc2)c1 > 76.9 µM
O=C1CCC(C(=O)NC2(C(=O)NC3CCCCC3)CCCCC2)N1 (configuration not stated) > 76.9 µM
COc1ccc(OC)c(NC(=O)CSc2nnc(C)n2Cc2ccccc2)c1 > 76.9 µM
CCC(=O)c1ccc(OCC(=O)O)cc1 > 76.9 µM
CCOc1ccc(NS(=O)(=O)c2ccc3[nH]cc(C(=O)NCC4CCCO4)c(=O)c3c2)cc1 (configuration not stated) > 76.9 µM
Cn1c(=O)c2c(ncn2Cc2ccc(Cl)c(Cl)c2)n(C)c1=O > 76.9 µM
Cc1cc(C)c2c(n1)sc1c(N3CCOCC3)ncnc12 > 76.9 µM
O=C(CN1C(=O)CCC1=O)Nc1nc(-c2ccc(Cl)s2)cs1 > 76.9 µM
Cc1nnc(NCc2ccco2)c2ccccc12 > 76.9 µM
CCc1ccc(CC)c(S(=O)(=O)Nc2ccc(C(=O)O)c(O)c2)c1
COc1ccc2c(c1)CCc1c(C(=O)N3CCc4ccccc4C3)noc1-2 > 76.9 µM
CCn1cc(C(=O)O)c(=O)c2cnc(N3CCN(C(=O)Nc4cccc5ccccc45)CC3)nc21 > 76.9 µM
CCCNS(=O)(=O)c1ccc(C(=O)NCC2CCCO2)cc1 (configuration not stated) > 76.9 µM
C=CCSc1nc2c(c(=O)[nH]c(=O)n2C)n1C/C=C(/C)Cl > 76.9 µM
Cc1ccc(Cn2c(=S)[nH]c3ccc(N4CCOCC4)cc3c2=O)o1 > 76.9 µM
COc1ccc(CC(=O)NCc2ccccc2Cl)cc1S(=O)(=O)N1CCOCC1 > 76.9 µM
Cc1cccc(Cc2c(C)nc3nc(SCC(=O)NCc4ccco4)nn3c2C)c1 > 76.9 µM
Cc1cc(NC(=O)CN2CCC(O)(c3cccc(F)c3)CC2)no1 > 76.9 µM
O=S(=O)(c1ccc(OCc2nc3ccccc3s2)c(Cl)c1)N1CCOCC1 > 76.9 µM
Nc1nonc1-n1nnc(C(=O)c2ccccc2)c1-c1ccccc1
Cc1ccc2cc(CN(Cc3ccco3)S(=O)(=O)c3c(C)ccc4nsnc34)c(=O)[nH]c2c1 > 76.9 µM
COC(=O)c1ccc(CC(=O)c2c(C)cc(O)cc2O)o1 > 76.9 µM
O=C(c1cc(S(=O)(=O)N2CCOCC2)ccc1F)N1CCN(Cc2ccccc2)CC1 > 76.9 µM
Cc1ccc(S(=O)(=O)N(C)CCCC(=O)Nc2ccccn2)cc1 > 76.9 µM
O=C(NC1CCCC1)C(c1ccc(N2CCOCC2)cc1)N(Cc1ccco1)C(=O)c1ccco1 (configuration not stated) > 76.9 µM
CCN(CC)CC(=O)c1c[nH]c2ccc(C)cc12 > 76.9 µM
c1ccc(-c2cn3cccnc3n2)cc1 > 76.9 µM
Cc1nnc2n1N=CC=C(C(C)(C)C)S2 > 76.9 µM
CC1C2C(C)N(C)C(=O)N(C)C2N(C)C(=O)N1C (configuration not stated) > 76.9 µM
Cc1n[nH]c(C)c1S(=O)(=O)N1CCCC(C(=O)NCc2cccs2)C1 (configuration not stated) > 76.9 µM
O=C(O)CC(CC(=O)Nc1nncs1)c1ccccc1 (configuration not stated) > 76.9 µM
COCCCn1c(=N)c(C(=O)NCC2CCCO2)cc2c(=O)n3ccccc3nc21 (configuration not stated) > 76.9 µM
CC1(C)CC(=O)C(/C=N/n2cnc3ccccc3c2=O)=C(O)C1 > 76.9 µM
Cc1occc1C(=O)n1nnc2ccccc21 > 76.9 µM
O=C(NCc1ccco1)c1cc2c(s1)CSC2 > 76.9 µM
CCC(=O)Nc1ccc(NC(=O)Cc2ccccc2)cn1 > 76.9 µM
CSc1ccc(Cl)c(C(=O)OCC(=O)NCc2ccco2)c1 > 76.9 µM
Cc1ccccc1C(=O)Nc1cccc(NC(=O)Cn2cnc3c(=O)n(C)c(=O)n(C)c32)c1 > 76.9 µM
Cc1cccc2nc(CNc3ccc(F)cc3)cn12 > 76.9 µM
CN1C(=S)SC(C)(C)C1(C)NO (configuration not stated) > 76.9 µM
N#Cc1ccc(NC(=O)C2CC(c3ccc(F)cc3)=NO2)cc1 (configuration not stated) > 76.9 µM
CC(=O)c1c(C)[nH]c(C(=O)NC2CCCCC2)c1C > 76.9 µM
Cc1cc(N2CCCC2=O)cc(C)c1S(=O)(=O)NCCOc1ccccc1 > 76.9 µM
CCOC(=O)Oc1ccc2oc(C)c(C(=O)OCCOC)c2c1 > 76.9 µM
CCc1n[nH]c(=O)n1Cn1c(CC)n[nH]c1=O > 76.9 µM
O=C(NC1CC2CCCC(C1)N2C(=O)NCc1ccccc1)C1CC1 (configuration not stated) > 76.9 µM
CC1(C)N=C(C(=O)c2ccccc2)N(O)C1(C)O (configuration not stated) > 76.9 µM
CCCCCN(C(=O)NC(=O)Nc1nncs1)S(C)(=O)=O > 76.9 µM
O=C(CN1C(=O)C2C3C=CC(C3)C2C1=O)NCC1COc2ccccc2O1 (configuration not stated) > 76.9 µM
COc1cccc(N2C(=O)c3ccncc3C2=O)c1 > 76.9 µM
CCCC(=O)Nc1cc(-c2nn(C)c(=O)c3ccccc23)ccc1OC > 76.9 µM
C#CCNc1nc(C)nc2c1nnn2Cc1ccccc1F > 76.9 µM
c1coc(CN2CN=C(Nc3nc4ccccc4s3)NC2)c1 > 76.9 µM
Cc1noc(C)c1C(=O)OC(C(=O)NC1CCCC1)c1ccc(F)cc1 (configuration not stated) > 76.9 µM
C=CCOc1ccc(CN(C)CC(=O)N(CC(C)C)c2c(N)n(CC(C)C)c(=O)[nH]c2=O)cc1 > 76.9 µM
Cn1c(CCN2CCOCC2)nc2cc(NC(=O)COc3ccccc3)ccc21 > 76.9 µM
Cc1ccc(C(=O)COc2cccc(NC(=O)c3ccco3)c2)cc1 > 76.9 µM
O=C(NCC1CCCO1)C1CCCN(S(=O)(=O)c2cccc3nsnc23)C1 (configuration not stated) > 76.9 µM
COc1nc2c(C)cccc2cc1-c1noc(-c2ccncc2)n1 > 76.9 µM
Cc1noc(C)c1COC(=O)c1ccccc1Sc1ccccc1C#N > 76.9 µM
COc1ccc(-c2nnc(SCC(=O)c3cccs3)o2)cc1 > 76.9 µM
Cc1oc(C)c2c(=O)ccc3c(c12)OC(N)=C(C#N)C3c1ccc(F)cc1 (configuration not stated) > 76.9 µM
CC1(C)CC(C2N3CC4(C)CN2CC(C)(C3)C4=O)CCO1 (configuration not stated) > 76.9 µM
O=C1C2(c3ccccc3)CN(CCCO)CC1(c1ccccc1)CN(CCCO)C2 > 76.9 µM
C=CCn1c(Cc2cccs2)nnc1SCC(=O)Nc1cc(OC)cc(OC)c1 > 76.9 µM
Cc1ccnc(NC(=O)CCc2c(C)nc3ncnn3c2C)c1 > 76.9 µM
COC(=O)CCC(=O)c1oc2ccccc2c1N > 76.9 µM
O=C(CCn1c(=O)oc2ccccc21)N1CCN(c2ccccc2Cl)CC1 > 76.9 µM
COc1cccc(NC(=O)CSc2nnc(C)s2)c1 > 76.9 µM
CCC1CCCCN1CCNC(=O)C1CCN(S(=O)(=O)c2c(C)noc2C)CC1 (configuration not stated) > 76.9 µM
CCc1nnc(SCc2cn3c(C)cc(C)nc3n2)n1N > 76.9 µM
CCOC(=O)c1cc2c(c(CSc3nc4ccccc4c(=O)n3Cc3ccco3)c1)OCOC2 > 76.9 µM
CCCCNC(=O)Cn1c(-c2ccc(OC)cc2)noc1=O > 76.9 µM
